About 420 (8.8%) of roughly 4,800 compounds showed an effect of 50% or more. Some of the results follow.
tested on: Plasmodium falciparum; experiment: Confirmatory screen in NF54 nanoGlo assay, in single point, at 2uM, 72h; format: functional, Erythrocyte; conditions: timepoint 72 hour

Structure (SMILES)	% Inhibition [%]
Cc1nn(Cn2nc(-c3ccc(F)cc3)c(Br)c2-c2ccc(F)cc2)c(C)c1Cl	5
O=S(=O)(c1cccc(F)c1)c1cnc2c(F)cccc2c1-c1cccc(F)c1	-8
CCc1ccc(CNC(=O)C2(N3CCOCC3)CCC2)s1	-5
Cc1cc(C)c(C(=O)O)cc1NC(=O)c1oc(C2CC2)nc1C	-8
CC1(C)CC(=O)C2(Cc3cc(C(F)(F)F)ccc3N3CCCC[C@H]32)C(=O)C1	3
CCCCS(=O)(=O)N1CC[C@H](CC(=O)NCc2ccccc2)C1	-14
O=C(Nc1cccc2ccccc12)c1nn[nH]c1NS(=O)(=O)c1ccccc1	-9
Cc1nc2c(Oc3ccccc3)cccc2c2c1CCN2c1ccc(OC(F)(F)F)cc1	-17
COc1nc2ncnc(OC)c2nc1C#N	3
N#CCc1ncc(CCN2C(=O)c3ccccc3C2=O)s1	-1
O=C1CN(C(=O)c2ccc3noc(-c4ccccc4)c3c2)CCN1	-1
CC(C)N1CCC(NC(=O)NCC2CCCCCCC2)CC1	0
O=C1CNC(=O)N1Cc1ncoc1-c1ccccc1	-15
O=C1O[C@H](C(=O)Nc2ccc(S(=O)(=O)N3CCCC3)cc2)Cc2ccccc21	-16
Cc1cc(C)n(-c2nnc(-c3ccccc3)c(-c3ccccc3)n2)n1	2
COc1c2c(cc3c1[C@@H](C#CCOc1ccccc1)[N+](C)(C)CC3)OCO2	75
CC(C)(C)c1cnc(CN2CCCN(C(N)=O)CC2)s1	-1
CCS(=O)(=O)N1CCC(N2C(=O)[C@@H]3CC[C@@H](c4ccccc4)N3C2=O)CC1	-5
c1cc(-c2nnn(CN3CCCCC3)n2)ccn1	-6
N[C@H]1COc2ccc(Br)cc2C1=O	-3
CC1(C)C(NCC(O)COc2ccc(F)c(F)c2)[C@@H]2CCC[C@@H]21 (stereo partly drawn)	72
COc1ccc(-c2nccn3cc(C(=O)NCCc4ccncc4)nc23)cc1	-1
CS(=O)(=O)Nc1ccc(OC(=O)C2C3CCCCC32)cc1 (stereo not drawn)	7
CC1CCC2C(CCC(C)N2C(=O)c2cc3nc4c(c(C(F)(F)F)n3n2)CCc2ccccc2-4)C1 (stereo not drawn)	-2
CC(C)N(C)CCOC(=O)c1ccccc1Cl	-1
Cc1ccc(S(=O)(=O)Nc2ccccc2-c2nnc(-c3c(NS(=O)(=O)c4ccc(C)cc4)ccc4ccccc34)o2)cc1	-14

Structure (SMILES)	% Inhibition [%]
O=C(c1cn(CC2(O)CCN(Cc3ccccc3)CC2)nn1)N1CCCc2ccccc21	12
CC(C)C[C@]1(C)NC(=O)N(Cc2noc(-c3cccs3)n2)C1=O	-13
O=c1c2ccccc2nc2cc(-c3ccc(O)cc3)c(-c3ccccc3)nn12	53
O=C(CNc1ccc2ccccc2c1)Nc1ccc2c(c1)OCCCO2	1
Cc1ccc(S(=O)(=O)NC(C)C)c(C)c1	-2
O=C(CS(=O)(=O)Cc1cc(Cl)c2c(c1)OCCCO2)NC1CCCCCC1	-11
FC(F)(F)C(c1nc(Nc2nc(N3CCOCC3)nc(N3CCOCC3)n2)nc(C(C(F)(F)F)(C(F)(F)F)C(F)(F)F)n1)(C(F)(F)F)C(F)(F)F	10
COC(=O)Nc1nc(-c2ccccc2)c(-c2nc3ccccc3c(=O)n2-c2ccc(OC)cc2)s1	5
Cc1cccc2c1N(C(=O)[C@H]1CCS(=O)(=O)C1)CC2	2
CCc1cc(N2C[C@@H]3NC(=O)CN(C)Cc4ccc(OC)c(c4)Oc4cccc(c4)CO[C@H]3C2)nc(N(C)C)n1	60
Nc1n[nH]c(N)c1Cc1cccc(Br)c1	-2
CCC1CN(CCCN2C(=O)CNC2=O)CCC1c1ccccc1 (stereo not drawn)	0
C[C@H](NC(=O)c1ccco1)c1nc(-c2ccc(=O)n(C)c2)no1	-3
CC[C@H](C)Oc1cccc(-c2nc(=O)c(CCC(=O)N3CCOCC3)n[nH]2)c1	0
Clc1cccc(COc2ccccc2CNc2nc[nH]n2)c1	-4
CCCCN(CC)c1ncc(C(=O)Nc2ccc(OCC)cc2)c(N)n1	27
COc1ccc(CC(=O)NCCOCCO)cc1	5
C#CCN(C(=O)c1ccncc1CC)c1nccs1	-10
CCN(C[C@H](C)C#N)C(=O)C(=O)Nc1ccc(F)cc1Cl	-5
CCCN1CCN(C(=O)CN2CCCC2=O)c2ccc(F)cc21	-2
COc1ccc(-c2nc(-c3ccc(=O)n(C)c3)no2)c(OC)c1	-5
CC[C@@H](CO)NC(=O)Nc1ccc(F)cc1	3
O=C(CNC1=NC(=O)C(c2ccccc2)(c2ccccc2)N1)NCc1ccc(F)cc1	-1
COc1ccc(C(=O)n2[nH]c(=O)c(CCO)c2C)cc1	-3
CC1CC(c2ccccc2)CCN1C(=O)c1cc(C2CC2)on1 (stereo not drawn)	-5
CC(C)[C@@H](C(=O)Nc1ccc2c(c1)OCO2)N(Cc1cccnc1)C(=O)Cn1nnc2ccccc21	-9

Structure (SMILES)	% Inhibition [%]
COc1cccc(-c2nsc(C(=O)NCc3cccnc3)c2N)c1	5
c1ccc(-c2cc3c(N4CCC4)ncnc3s2)cc1	-6
CN(C(=O)C1C(C(=O)O)C1(C)C)c1ccccc1OC(F)F (stereo not drawn)	-2
Cc1cnn(-c2ccncc2NS(C)(=O)=O)c1	-15
O=c1cc(-c2ccccc2)n(S(=O)(=O)c2ccccc2)o1	-8
O=C(Nc1ccc2c(c1)OCCCO2)c1ccsc1	6
Cc1ocnc1C(=O)N[C@H]1CCN(c2ccc(Cl)c(F)c2)C1=O	-2
CN(c1ccc(Cl)cn1)S(=O)(=O)c1ccc2ncccc2c1	-22
O=C(O)Cc1ccc(OCc2nnc(-c3ccccc3)s2)cc1	-4
c1ccc(-c2cccnc2NCc2cscn2)cc1	-6
COc1ccc(NC(=O)Cc2c(C)nn(-c3nc(C)cs3)c2O)c(OC)c1	-7
Cc1c(N2CCN(C(=O)c3ccc(F)cc3)CC2)c(=O)n(C)c(=O)n1C	-4
CCOC(=O)CNc1ccc(F)c(Cl)c1	-6
O=C(CN1C(=O)COc2ccccc21)N1CCC[C@H](c2nc3ccccc3s2)C1	-8
CC(C)n1nccc1N1C(=O)N[C@@H](CC(F)(F)F)C1=O	0
Cc1ncsc1[C@@H]1CC(=O)Nc2nc(N3CCC(C)CC3)nc(O)c21	-7
NC(=O)C1CCN(C(=O)Nc2nc(C(F)(F)F)cs2)CC1	5
Cc1c(C(=O)NC[C@](C)(O)c2ccc(F)cc2F)cnn1C	7
CCNC(=O)C[C@H]1CCCCN1C(=O)C1CCN(Cc2csc(C)n2)CC1	-1
O=C1CCCC1C(c1ccccc1)N(C1=NS(=O)(=O)c2ccccc21)c1ccccc1 (stereo not drawn)	-10
CCC(C)(C)N(C)C(=O)c1ccccc1Cl	1
Cc1nn(C)cc1C(=O)N1CCN(c2nncc3ccccc23)CC1	-18
Cn1ccnc1[C@@H]1CCCN1Cc1nccn1Cc1ccccc1	45
COc1ccccc1C(=O)N(Cc1cccs1)c1ccc(C)c(Cl)c1	-2
Cc1ccccc1CNC(=O)c1ccccc1NC(=O)C1CC=CCC1C(=O)O (stereo not drawn)	0
c1csc(CNC2CCCCCCC2)c1	-1

Structure (SMILES)	% Inhibition [%]
Cc1cc2occ(CC(=O)N[C@@H](Cc3c[nH]c4cc(F)ccc34)C(=O)O)c2cc1C	-1
CC1(C)Oc2ccc(NC(=O)c3ccco3)cc2NC1=O	-2
CCN1CC[C@H](NCc2ccc(OCCN3CCOCC3)c(Cl)c2)C1=O	2
C[C@H]1CNCCN1C(=O)c1coc2ccccc12	-4
COc1ccc2cc3n(c2c1)C[C@@](C)(C(=O)NC1CCCC1)N(Cc1ccc(F)cc1)C3=O	16
CCN(CC)C(=O)N1CCC[C@@H]1CCc1ncc(C)n1C(C)C	5
O=C1CCc2cc(NC(=O)[C@@H]3Cc4ccccc4C(=O)O3)ccc2N1	-4
Cc1sc(NC(=O)c2ccccc2Cl)nc1-c1ccc2c(c1)NC(=O)[C@H](C)O2	4
COC(=O)c1cc(Cl)c(Cl)cc1N	-6
Cc1c(S(=O)(=O)N2CC3CN(c4ccccc4)CC3C2)cnn1C (stereo not drawn)	5
COc1cccc2c1OCC(=O)N([C@@H](C)c1ccccc1)C2	-8
CC(C)(C)CC(C)(C)NC(=O)c1ccc2nc(N3C(=O)CCC3=O)sc2c1	-1
Cc1c(C)n(CCc2c[nH]c3ccccc23)ccc1=O	2
O=C(Cc1ccc(N(Cc2cccc(F)c2)C(=O)C2CCCC2)cc1)NCCN1CCCCC1	54
CC1(C)c2ccccc2CCN1C(=O)CCc1ncc(-c2ccccc2)o1	-4
COc1cc2c(cc1OC)CN(C(=O)c1cccc(N3C(=O)C(C)(C)CS3(=O)=O)c1)CC2	-3
O=C(NCCN1CCCCC1)[C@H]1CCCN(c2nc3cccnc3n(Cc3ccccc3)c2=O)C1	-9
Clc1ccc(COc2ccc(Cl)cc2CNCCCn2ccnc2)c(Cl)c1	95
O=C(c1ccc(O)cc1)C1CCN(C[C@H](O)C(F)(F)F)CC1	5
Cc1sc2ncnc(N3CCCCC3)c2c1C(=O)NCc1cccc(Cl)c1	0
CN=C(NCC(=O)N(C)CC(F)(F)F)NCc1ccc(C)cc1	7
COCCCNC(=O)C(=O)Nc1ccnn1C1CCCCC1	3
Cc1nn(C)c(Cl)c1CNCc1ccc(N2CCCCC2)nc1	-10
COc1cccc(CNCCN2CCOCC2)c1OCc1ccc(Cl)cc1Cl	7
Cc1ccc(Nc2c(-c3cc4ccccc4cc3O)nc3ncccn23)cc1	-2

From ChEMBL document CHEMBL4888484, “Replenishing the malaria drug discovery pipeline: Screening and hit evaluation of the MMV Hit Generation Library 1 (HGL1) against asexual blood stage Plasmodium falciparum ,using a nano luciferase reporter read-out” (2022)
